PubChem BioAssay AID463173 (ICCB-Longwood Screening Facility, Harvard Medical School, 2010)
Out of some 52,000 compounds screened, about 1,700 (3.3%) were called active. Rule as the data show it: active = survival mostly below about 52% (no sharp cut-off); inactive = mostly above about 56%. The list shows a part of the results.

test system: Wild type; assay: S. aureus survival, RN4220 and DeltatarO strains – OD600, teichoic acid synthesis inhibitors, primary screen (AID 463173); details: S. aureus RN4220 wild type/DeltatarO growth, OD600, 18 h, stronger effect = lower value, screened at 18.75 µg/mL (by protocol)

Structure (SMILES) | survival
COC(=O)c1ccccc1NC(=O)CCCn1c(=O)c2cccn2c2cccnc21 | inactive: 95%
CCc1nc(NCCCO)c2nnn(Cc3ccccc3F)c2n1 | inactive: 106%
CC(C)NC(=O)CN1C(=O)C(C)(C)Oc2ccc(C(=O)NC(C)C)cc21 | inactive: 101%
CCOC(=O)c1cc2oc(C)cc2n1CCCN1C(=O)c2ccccc2C1=O | active: -1%
O=C(Cn1cnc2ccccc2c1=O)NCCC(=O)Nc1ccc(F)cc1 | inactive: 71%
CC(C)COc1ccc(C(=O)Nc2cc(-c3ccccc3)no2)cc1 | inactive: 88%
CCc1cccc2c(C#N)cn(CCOc3ccccc3OC)c12 | inactive: 95%
CCCCN(CC)CCCNC(=O)Cn1ncc2c([nH]c3ccc(C)cc32)c1=O | inactive: 71%
O=c1c2cn[nH]c2nc(SCc2c(F)cccc2F)n1-c1ccc(Cl)cc1 | inactive: 90%
CCCCN1C(=O)C(O)(CC(=O)c2ccc(C)cc2C)c2cc(Br)ccc21 (stereo not drawn) | active: 1%
O=C(NCc1ccco1)c1ccc2c(c1)N(Cc1ccc(F)cc1)C(=O)c1ccccc1S2(=O)=O | inactive: 152%
CC(C)(C)c1cc(C(F)(F)F)nc(SCCCNC(=O)c2ccco2)n1 | inactive: 116%
COc1ccc(N(CC(=O)N2CCN(c3ccc(F)cc3)CC2)S(=O)(=O)c2c(C)noc2C)cc1 | inactive: 88%
CCOc1cccc(C(=O)Nc2nc3c(s2)CC(C(C)(C)C)CC3)c1 (stereo not drawn) | inactive: 92%
COc1cccc(CNC(=O)c2cc(Sc3cccc(Cl)c3)nc3ccccc23)c1 | inactive: 81%
Cc1ccc(/C=C/C(=O)Nc2ccccc2C(N)=O)o1 | inactive: 66%
COc1ccccc1NC(=O)COc1ccc(-c2nn(C)c(=O)c3ccccc23)cc1 | inactive: 57%
COc1cc(OC)cc(-c2nc3n(n2)C(c2ccccc2)C(C(N)=O)=C(C)N3)c1 (stereo not drawn) | inactive: 79%
Cc1c(C(=O)N2CCOCC2)oc2c1-c1nn(CC(=O)NCc3cccc(Cl)c3)cc1CC2 | inactive: 83%
Cc1sc(-c2cc3c([nH]c2=O)CC(c2ccccc2)CC3=O)nc1-c1ccc(Cl)cc1 (stereo not drawn) | inactive: 67%

Structure (SMILES) | survival
Cc1ccc(CCNC(=O)c2c(C)oc3ncn(CC(C)C)c(=O)c23)cc1 | inactive: 131%
CC(C)(C)OC(=O)N1CCC(c2c(C(=O)NCCc3ccccc3)cnn2-c2ccc(F)cc2F)CC1 | inactive: 63%
COc1ccc(-c2c(C)c3ccc(O)c(CN4CCN(CCO)CC4)c3oc2=O)cc1OC | inactive: 86%
O=C(NCc1cccc(F)c1)c1ccc(NC(=O)c2nsc3ccccc23)cc1 | active: -4%
CCOC(=O)c1c(NC(=O)COc2cccc(C)c2C)sc2c1CCC(CC)C2 (stereo not drawn) | inactive: 78%
Cn1c(=O)oc2cc(S(=O)(=O)N3CCC(C(=O)N4CCN(c5ccccc5F)CC4)CC3)ccc21 | inactive: 93%
COc1cc(Cl)c(C)cc1NC(=O)CC(c1ccc(F)cc1)N1Cc2ccccc2C1=O (stereo not drawn) | active: -2%
CCCCS(=O)(=O)c1oc(-c2ccc(F)cc2)nc1S(=O)(=O)c1ccc(C)cc1 | inactive: 33%
COc1ccc(OC)c(S(=O)(=O)Nc2cccc(-c3ccc(N4CCCCC4)nn3)c2)c1 | inactive: 84%
CC(C)(C)c1ccc(C(=O)Nc2onc3c2CCCC3)cc1 | inactive: 81%
Cc1ccc(C)c(N2CCN(C(=O)CSCc3ccccc3Cl)CC2)c1 | inactive: 82%
COc1cccc(NC(=O)CC2Nc3cc(C)c(C)cc3NC2=O)c1 (stereo not drawn) | inactive: 78%
Cn1ncc(Cl)c1C(=O)O | inactive: 95%
Cc1cccc(NC(=O)CCS(=O)(=O)c2cc(Br)cc3c2N(C(=O)C2CC2)CC3)c1 | inactive: 98%
CCOc1ccc(NS(=O)(=O)c2ccc3c4c(cccc24)C(=O)N3)cc1 | inactive: 78%
CC(C)(C)c1ccc(C(=O)NCC(c2ccc(Cl)cc2)N2CCOCC2)cc1 (stereo not drawn) | inactive: 117%
Cc1ccc(CN(Cc2ccco2)C(=O)COc2ccc(C)c(C)c2)cc1 | inactive: 84%
CCc1ccc(S(=O)(=O)Nc2cccc(-c3ccc(N4CCOCC4)nn3)c2)cc1 | inactive: 60%
Cc1ccc(CNC(=O)CC2Oc3ccc(Cl)cc3NC2=O)cc1 (stereo not drawn) | inactive: 80%
COc1ccc(/C=C/C(=O)Nc2nc(-c3cccs3)ns2)cc1OC | inactive: 65%

Structure (SMILES) | survival
CC(=O)c1cccc(NC(=O)CSc2nc3ccccc3nc2Cc2ccc(F)cc2)c1 | inactive: 73%
CC(=O)Nc1ccccc1-c1nc2ccccc2n(CC(=O)Nc2cccc(C(F)(F)F)c2)c1=O | inactive: 56%
Cc1ccc(CO)cc1Nc1ncnc2onc(-c3ccc(F)cc3)c12 | inactive: 68%
CCS(=O)(=O)N1CC(=O)N(c2ccc(Cl)cc2)C(C)(C(=O)NC2CCCCC2)C1 (stereo not drawn) | inactive: 72%
CCOc1cccc2cc(S(=O)(=O)c3ccccc3F)c(=O)oc12 | inactive: 74%
CCN(CC)C(=O)CSc1nc(-c2ccc(C)cc2)nc2c1Cc1c(CO)cnc(C)c1O2 | inactive: 56%
CN(N)C1=NS(=O)(=O)c2ccccc21 | inactive: 96%
CC1=C(c2ccc(C(C)C)cc2)S(=O)(=O)N=C1N1CCC(C(=O)NCCc2ccco2)CC1 | active: 1%
COc1cccc(-c2nc(SCC(=O)NC3CCCC3)c(-c3ccc(C)cc3)[nH]2)c1 | inactive: 117%
Cc1ccc(CNC(=O)c2ccc3nc(SCc4ccc(F)cc4)[nH]c3c2)cc1 | inactive: 76%
CCc1ccc(NC(=O)CN(c2cc(C)cc(C)c2)S(=O)(=O)c2c(C)[nH]c(=O)[nH]c2=O)cc1 | inactive: 68%
CC(C)CC(=O)N(c1nnc(-c2cccnc2)s1)C1CCCC1 | inactive: 98%
CC1=C(C(=O)Nc2ccc(F)cc2F)C2(CCN(C(C)C)CC2)OC1=O | inactive: 22%
CCCOc1cccc(C(=O)Nc2cc(-c3ccccc3)no2)c1 | inactive: 87%
Cc1ccc(C(=O)Nc2c(C)nc3ccccn3c2=O)cc1C | inactive: 69%
CCOc1ccc(CNC(=O)c2ccc3c(c2)nc2n3CCOC2)cc1OC | active: 1%
CCc1cccc(NC(=O)C(Cc2ccccc2)n2cccc2)c1 (stereo not drawn) | active: 12%
CC(C)(C)c1ccc(CSc2n[nH]c(=O)[nH]c2=O)cc1 | inactive: 117%
